According to PubChem BioAssay AID488969 (Vanderbilt High Throughput Screening Facility, 2010):
Over roughly 110,000 compounds, “z-score” has its median near -0.1; the highest 2% begin near 2. This is one part of the list. Calls of active or inactive are those of the source.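 How the source made its calls: active means z-score in the third read window above 3 or below -3; inactive means the rest.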

target: Metabotropic glutamate receptor 8 (Rattus norvegicus) (UniProt P70579); assay: rat mGluR8 modulators via GIRK flux, primary screen, cell-based, thallium flux, HTS (AID 488969); settings: HEK293 rat mGluR8, GIRK (G protein-gated inwardly rectifying potassium channel) thallium flux, FluoZin2; at 10 µM; stronger effect = higher value; submaximal glutamate (EC20) added with thallium
Chain of UniProt P70579 (P70579 whole entry, looked up): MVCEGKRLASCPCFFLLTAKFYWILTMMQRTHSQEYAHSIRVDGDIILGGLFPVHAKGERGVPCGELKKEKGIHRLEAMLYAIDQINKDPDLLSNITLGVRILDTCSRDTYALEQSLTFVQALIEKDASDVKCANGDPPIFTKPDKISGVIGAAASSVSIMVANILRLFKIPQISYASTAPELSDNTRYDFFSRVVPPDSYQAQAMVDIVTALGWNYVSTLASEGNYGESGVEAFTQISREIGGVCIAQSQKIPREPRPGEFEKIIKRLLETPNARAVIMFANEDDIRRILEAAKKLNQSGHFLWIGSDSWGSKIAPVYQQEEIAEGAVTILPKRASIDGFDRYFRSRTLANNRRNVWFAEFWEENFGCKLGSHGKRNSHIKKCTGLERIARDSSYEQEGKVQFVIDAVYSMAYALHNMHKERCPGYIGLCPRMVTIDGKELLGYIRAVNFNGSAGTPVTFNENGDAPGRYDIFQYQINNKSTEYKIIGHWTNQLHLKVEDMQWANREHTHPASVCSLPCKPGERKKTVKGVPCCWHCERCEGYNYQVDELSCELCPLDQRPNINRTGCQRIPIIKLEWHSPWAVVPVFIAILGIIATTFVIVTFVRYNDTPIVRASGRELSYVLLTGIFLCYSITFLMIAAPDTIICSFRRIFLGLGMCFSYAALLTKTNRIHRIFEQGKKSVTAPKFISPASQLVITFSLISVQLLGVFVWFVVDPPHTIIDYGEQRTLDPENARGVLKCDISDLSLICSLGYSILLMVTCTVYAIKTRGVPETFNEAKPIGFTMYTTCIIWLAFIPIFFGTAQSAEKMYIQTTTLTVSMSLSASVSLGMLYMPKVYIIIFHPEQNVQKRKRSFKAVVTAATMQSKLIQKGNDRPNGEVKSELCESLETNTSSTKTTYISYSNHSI

| SMILES | z-score |
| --- | --- |
| O=C(CSCc1c(F)cccc1Cl)NCc1cccnc1 | -0.196 |
| CCOC(=O)CSc1nnc2n1C(C)(C)Cc1ccccc1-2 | 0.0272 |
| COc1ccc(C(N)=S)cc1 | -0.0844 |
| CCOc1ccc(NC(=O)CN(C2CCCCC2)S(C)(=O)=O)cc1 | 0.101 |
| O=C(CCl)NCc1c(Cl)cccc1-n1cccc1 | 0.0712 |
| CCCn1nnc(NC(=O)c2cc3ccccc3o2)n1 | 0.258 |
| Cc1ccc(S(=O)(=O)N2CCOCC2)cc1C(=O)NCc1ccc2c(c1)OCO2 | -0.442 |
| CCOC(=O)c1ccc(NC(=O)c2cc(OC)c(OC)c(OC)c2Br)cc1 | 0.551 |
| CCN(CC)S(=O)(=O)c1ccc(NC(=S)NC(=O)C(C)C)cc1 | -0.187 |
| O=C(NCCC1=CCCCC1)C(=O)NCc1ccccc1Cl | -0.0505 |
| O=C1CC(c2ccc(F)cc2)c2cc3c(cc2N1)CCC3 (stereo not given) | -0.285 |
| CCOC(=O)c1cnc(SCc2nc(N)nc(Nc3ccc(OC)cc3)n2)nc1N | 0.531 |
| CCCc1nc(SCC(=O)Nc2cc(C)on2)c2ccccc2n1 | -0.23 |
| COc1cccc(NC(=O)CCN2CCC(C(N)=O)CC2)c1 | -0.262 |
| COc1ccc(-c2nn(C)c(=O)c3ccccc23)cc1NC(=O)COc1ccc(C)cc1 | -0.898 |
| Cc1sc(NC(=O)Cn2nc(C(F)(F)F)cc2C)c(C(=O)OC(C)C)c1C | 0.0391 |
| CC1=NN(c2nc(-c3ccc(Cl)cc3)cs2)C(=O)C1 | -0.244 |
| O=C1CC(CCC(=O)NC2CC2)c2ccccc2N1 (stereo not given) | -0.56 |
| CC(C)(C)CC(C)(C)NC(=O)CSCC(=O)Nc1ccc2ccccc2c1 | -0.11 |
| Cc1oc2c(cc(NS(=O)(=O)c3ccc4c5c(cccc35)C(=O)N4)c3ccccc32)c1C(=O)OC(C)C | -0.964 |
| CCOC(=O)N1CCN(C(=O)c2ccccc2N(C)S(C)(=O)=O)CC1 | 0.134 |
| CCOC(=O)C(C)Oc1cccc2c(=O)n(CC(=O)N3CCN(C(=O)OCC)CC3)ccc12 (stereo not given) | -0.125 |

| SMILES | z-score |
| --- | --- |
| CCN(CC)S(=O)(=O)c1ccc(OC(C)C)nc1 | -0.0988 |
| CC(C)COC(=O)c1ccc2c(c1O)C(=O)c1ccccc1C2=O | 0.968 |
| Cc1ccc(-c2ccc(SCC(=O)N3CCc4ccccc43)nn2)cc1 | -0.273 |
| COc1ccc(C(=O)Oc2cccnc2)cc1OC | -0.869 |
| S=C1NCCOCCNC(=S)NCCOCCOCCOCCN1 | -0.0593 |
| CCCC(=O)N1CCN(c2ccc(NC(=S)NC(=O)CC)cc2)CC1 | -0.0482 |
| CC1=NN(c2ccc(F)cc2)C(=O)C1C(c1cccc(O)c1)c1c(C)[nH]n(-c2ccc(F)cc2)c1=O (stereo not given) | -0.0779 |
| N#Cc1c(OCC(=O)c2ccccc2)nc2c(c1-c1ccco1)CCc1ccccc1-2 | 0.364 |
| COc1ccc(/C=c2/sc3n(c2=O)NC2(c4ccccc4)N(C)C(=O)N(C)C2(c2ccccc2)N=3)cc1 (stereo not given) | 0.168 |
| Cn1c(N2CCCC2)nc2c1c(=O)n(Cc1ccc(Cl)cc1)c(=O)n2C | active: 3.05 |
| Cn1c(=O)[nH]c(=O)c2c1nc(N1CCCC1)n2CCSc1nc2ccccc2[nH]1 | -0.145 |
| COc1ccc2c(c1OC)C(=O)N(c1ncn[nH]1)C2 | -0.176 |
| COc1cc(/C=N/Nc2nc(Nc3ccc(C)cc3)nc(-n3nc(C)cc3C)n2)cc(OC)c1OC | -0.19 |
| Cc1c(/C=N\NC(=O)c2csc3ccccc23)cnn1C | -0.0977 |
| CCC(C)(C(=O)NC1CCCC1)N(C(C)=O)c1ccc(C)cc1 (stereo not given) | -0.736 |
| COc1ccc(/C=N/NC(=O)c2ccccc2O)cc1Cn1cc(Cl)cn1 | -0.142 |
| O=C(CN1CCN(CC(=O)Nc2ccccc2Cl)CC1)Nc1ccc2c(c1)OCCO2 | -0.684 |
| CCOc1ccc(S(=O)(=O)Nc2cccc(OC)c2)cc1 | 0.0407 |
| O=C(NCc1cccs1)c1nc2c(nnn2Cc2ccccc2Cl)c(=O)[nH]1 | active: -3.23 |
| COc1cccc(-n2c(SCC(=O)NC3CCCCC3)nc3n[nH]c(C)c3c2=N)c1 | -0.531 |
| COC(=O)Nc1sc2c(c1C(N)=O)CCCCCC2 | 0.12 |
| O=C1CC(c2ccc(S(=O)(=O)NCCOc3ccccc3)cc2)CN1 (stereo not given) | 0.129 |

| SMILES | z-score |
| --- | --- |
| Cc1cc(=O)[nH]c(SCc2cc(=O)n3nc(C)sc3n2)n1 | -0.453 |
| COC(=O)c1ccc(C(=O)OC)c(NC(=S)N2CCN(c3cccc(Cl)c3)CC2)c1 | 0.0966 |
| CNC(=O)N(O)C1N(C)C(=O)N(Cc2ccccc2)C1(C)C (stereo not given) | 0.356 |
| CCOc1ccc(NC(=O)C2CC(=O)N=C(N)S2)cc1 (stereo not given) | -0.112 |
| Cc1ccccc1C(=NCCCN(C)C)c1ccccc1C | 0.825 |
| O=[n+]1c2c(n([O-])c3ccccc31)CCCC2 | -0.139 |
| COc1cc(NS(=O)(=O)c2ccc(OC)c(OC)c2)cc(OC)c1 | 0.251 |
| Cc1c(NC(=O)CSc2ccccn2)c(=O)n(-c2ccccc2)n1C | -0.147 |
| O=C(Cn1nnc2ccccc21)N/N=C\c1cccs1 | 0.71 |
| Cc1nn(CCC#N)c(NC(=O)c2ccc(Cl)cc2Cl)c1P(=O)(Nc1ccc([N+](=O)[O-])cc1)N1CCOCC1 (stereo not given) | -0.0204 |
| CCOC(=O)N/N=C/c1cc(C)n(-c2ccccc2)c1C | -0.188 |
| Cc1cc(=O)oc2cc(OCC3CC(c4ccc(N(C)C)cc4)=NO3)ccc12 (stereo not given) | -0.39 |
| CCOc1ccc2nc(SCC(=O)NC(=O)NCc3ccco3)[nH]c2c1 | 0.242 |
| CC(C)COC(=O)c1cccc2c1-c1ccccc1/C2=N\O | -0.108 |
| CCC(C)Nc1c2c(nc3c(-c4ccccc4)c(C)nn13)CCC2 (stereo not given) | -1.03 |
| Cc1cc(C)nc(NC(=O)/C=C/c2ccccc2Cl)n1 | -0.167 |
| COc1ccc2cc(-c3csc(-c4cccnc4)n3)ccc2c1 | -0.181 |
| S=c1[nH]cnc2scc(-c3ccccc3)c12 | active: 13.1 |
| O=C(N/N=C/c1cccc(C(F)(F)F)c1)C1CCN(c2ncc(C(F)(F)F)cc2Cl)CC1 | -0.0281 |
| Cc1ccc(C2=NC(C)(C)NC2=O)cc1 | -0.119 |
| Cc1ccc(N2C(=O)C3ON(c4ccccc4)C(c4ccncc4)C3C2=O)cc1 (stereo not given) | -0.103 |
| C=CCn1c(SCC(=O)c2ccc(Cl)s2)nc2ccccc2c1=O | -0.205 |

| SMILES | z-score |
| --- | --- |
| CC(=O)Nc1cccc(-c2nnc3n2CC(C)S3)c1 (stereo not given) | -0.767 |
| CC(C)CNC(=O)COC(=O)CCC(=O)c1cccs1 | -0.168 |
| O=C(CSc1ncccn1)N/N=C/c1cccc([N+](=O)[O-])c1 | 1.35 |
| Cc1cccc(Nc2nnc(SCC(=O)NC3CCCc4ccccc43)s2)c1 (stereo not given) | 0.0545 |
| Cc1nc(C)c(C(=O)C2=C(O)C(=O)N(CCN3CCOCC3)C2c2cccnc2)s1 (stereo not given) | 0.383 |
| CCCCCCOC(=O)C(C#N)c1nc2ccccc2nc1N1CCN(C)CC1 (stereo not given) | 2.73 |
| COc1ccc(OC)c(NC(=O)Cc2coc3ccc4ccccc4c23)c1 | 0.566 |
| CC(Oc1ccc(Cl)cc1)C(=O)OCC(=O)Nc1ncc(Cl)cc1Cl (stereo not given) | -0.547 |
| O=C(COc1ccccc1O)NNc1ccccc1 | -0.209 |
| N/C(=N\OC(=O)c1ccco1)c1cccc(Br)c1 | -0.427 |
| CC(C)Sc1nnc(CNC(=O)C23CC4CC(CC(C4)C2)C3)n1Cc1ccccc1 | 0.152 |
| CCOC(=O)CSc1nc2ccc(C)cc2cc1C#N | -0.778 |
| O=C(CSc1nnc(-c2cccnc2)s1)Nc1cccc(C(=O)O)c1 | -0.0443 |
| O=C1Cc2ccccc2Sc2c(OCCN3CCCCC3)cccc21 | -0.927 |
| Cc1ccc(C(c2nnnn2CS(=O)(=O)c2ccc(C)cc2)N2CCN(c3ncccn3)CC2)cc1 (stereo not given) | -0.145 |
| Cc1ccc(C)c(NC(=S)NC(NC(=O)OCc2ccccc2)C(Cl)(Cl)Cl)c1 (stereo not given) | -0.108 |
| CCOc1ccc(Cn2nnc(C(=O)NCc3ccccc3)c2N)cc1 | -0.258 |
| Cc1ccc(CC(CC(=O)O)C(=O)NCc2ccccc2)cc1 (stereo not given) | 0.117 |
| Cc1[nH]n(-c2ccccc2)c(=O)c1/C=N/O | -0.187 |
| COc1ccccc1N(CC(=O)NCC1CCCO1)C(=O)CNS(=O)(=O)c1ccc(C)cc1 (stereo not given) | -0.0736 |
| CCOC(=O)c1nnc2cc(-c3ccccc3)nn2c1C | -0.324 |
| Cc1ccnc(NS(=O)(=O)c2ccc(NC(=O)C3CCCO3)cc2)n1 (stereo not given) | -0.306 |

| SMILES | z-score |
| --- | --- |
| CCOC(=O)C1=C(C)NC(SCC(=O)O)=C(C#N)C1c1ccco1 (stereo not given) | -0.159 |
| O=C(CN(Cc1cccs1)C(=O)CNS(=O)(=O)c1ccc(Cl)cc1)NCc1ccco1 | -0.251 |
| COC(=O)C1CCN(C(=O)CN2C(=O)NC(CCc3ccccc3)C2=O)CC1 (stereo not given) | 0.0366 |
| CCn1c(O)c(N=NC(=O)c2cccc(S(=O)(=O)N3CCCCC3)c2)c2ccccc21 | -0.282 |
| Cc1cc(-c2[nH]nc3c2C(c2cccc(O)c2)C(C#N)=C(N)O3)c(C)s1 (stereo not given) | -0.239 |
| O=C(/C=C/c1ccc(F)cc1)NCc1ccco1 | -0.151 |
| COc1ccccc1N1CCN(S(=O)(=O)c2ccccc2F)CC1 | -0.52 |
| Nc1nc(SCC(=O)Nc2cc(-c3ccccc3)nn2-c2ccccc2)n[nH]1 | 0.218 |
| CC(C)NC1=C(Cl)C(=O)c2ccccc2C1=O | -0.413 |
| O=C(Nc1ccc([N+](=O)[O-])c(NC(=O)C2CCCO2)c1)C1CCCO1 (stereo not given) | -0.175 |
| Cn1c(CN2CCC(C(N)=O)CC2)c(C#N)c2ccccc21 | -0.956 |
| CCSc1nnc(-c2cccnc2)n1-c1ccc(Cl)c(C)c1 | -0.094 |
| Cc1cc(C)nc(SCc2cc(=O)c(OC(=O)c3cc([N+](=O)[O-])ccc3Cl)co2)n1 | -0.614 |
| O=C(/C=C/c1ccco1)Nc1ccc(Oc2ccccc2)cc1 | -0.169 |
| Nc1ncnc2nc(SCCOc3ccc(Cl)cc3)[nH]c12 | 1.42 |
| O=C(O)c1ccc(COc2ccc3c4c(c(=O)oc3c2)CCC4)o1 | 0.0617 |
| Cc1ccc(N(CCC(=O)O)S(=O)(=O)c2ccccc2)cc1 | 0.153 |
| CC1CCCCC1NC(=O)CN1C(=O)NC(Cc2ccccc2)(Cc2ccccc2)C1=O (stereo not given) | -0.2 |
| O=C1C2CCC(C(O)C2)N1Cc1ccccc1 (stereo not given) | -0.15 |
| Cc1c(C(=O)c2cccc([N+](=O)[O-])c2)c2ccccn2c1CCC#N | -0.451 |
| O=c1cc(-c2ccccc2)nc2nc(CCc3ccccc3)[nH]n12 | -1.32 |
| CCc1nnc(NC(=O)CSc2nnc(-c3ccccc3OC)n2-c2ccccc2)s1 | -0.755 |
